This is an account of results in the supplement of paper PMC12217912.

The chains are these.
B1: TEV protease; numbered along this chain (parent)
chain: MGESLFKGPRDYNPISSSICHLTNESDGHTTSLYGIGFGPFIITNKHLFRRNNGTLVVQSLHGVFKVKDTTTLQQHLVDGRDMIIIRMPKDFPPFPQKLKFREPQREERICLVTTNFQTKSMSSMVSDTSCTFPSGDGIFWKHWIQTKDGQCGSPLVSTRDGFIVGIHSASNFTNTNNYFTSVPKNFMELLTNQEAQQWVSGWRLNADSVLWGGHKVFMVKPEEPFQPVKEATQL

Some of the results follow. Sequences were assembled here from the parent chain. Inactive controls read about 0.05.

This assay covers variants of B1. The assay is described as follows: raw area under fraction-flipped curve 0-4 h after induction (AUC4h, not background-subtracted), DNA-recorder readout of cleavage of the substrate (dimensionless); higher = more cleavage of the substrate by the protease variant. The settings on record: temperature: 34 °C; time window: 0-4 h after rhamnose induction.
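Note: Bxb1 expression induced with 0.2% (w/v) L-rhamnose at OD600 near 0.5, cultures sampled hourly, flipped fraction per protease–substrate barcode pair counted by paired-end Illumina sequencing.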

With MGESLFKGPRDYNPISSSICHLTNESDGHTTSLYGIGFGPFIITNKHLFRRNNGTLVVQSLHGVFKVKDTTTLQQHLVDGRDMIIIRMPKDFPPFPQKLKFREPQREERICLVTTNFQTKSMSSMVSDTSCTFPSGDGIFWKHWIQTKDGQCGSPLVSTRDGFIVGIHSASNFTNTNNYFTSVPKNFMELLTNQEAQQWVSGWRLNADSVLWGGHKIFMVKPEEPFQPVKEATQL [V217I], the “area with substrate ECLYFQS” value was determined as 0.0887, the “area with substrate EDLYFQS” value was determined as 0.124, the “area with substrate EELYFQS” value was determined as 0.121 and the “area with substrate EGLYFQS” value was found to be 0.0899. For the same variant, the “area with substrate EHLYFQS” value amounted to 0.0799, the “area with substrate EILYFQS” value came out at 0.0893, the “area with substrate EMLYFQS” value was 0.122 and the “area with substrate EPLYFQS” value amounted to 0.105. Further, the “area with substrate ERLYFQS” value was found to be 0.112, the “area with substrate ESLYFQS” value worked out at 0.107, the “area with substrate EVLYFQS” value amounted to 0.104 and the “area with substrate EYLYFQS” value was determined as 0.161.

Turning to MGESLFKGPRDYNPISSSICHLTNESDGHTTSLYGIGFGPFIITNKHLFRRNNGTLVVQSLHGVFKVKDTTTLQQHLVDGRDMIIIRMPKDFPPFPQKLKFREPQREERICLVTTNFQTKSMSSMVSDTSCTFPSGDGIFWKHWIQTKDGQCGSPLVSTRDGFIVGIHSASNFTNTNNYFTSVPKNFMELLTNQEAQQWVSGIRLNADSVLWGGHKVFMVKPEEPFQPVKEATQL [W203I], the “area with substrate ECLYFQS” value came out at 0.0659, the “area with substrate EELYFQS” value was 0.0388, the “area with substrate EGLYFQS” value was determined as 0.0715 and the “area with substrate EILYFQS” value was 0.0533. In addition, the “area with substrate EKLYFQS” value worked out at 0.0687, the “area with substrate EMLYFQS” value was 0.0658, the “area with substrate EPLYFQS” value was found to be 0.0514 and the “area with substrate EQLYFQS” value turned out to be 0.0478. For the same variant, the “area with substrate ERLYFQS” value stood at 0.0701, the “area with substrate ESLYFQS” value came out at 0.0541, the “area with substrate ETLYFQS” value turned out to be 0.0679 and the “area with substrate EVLYFQS” value worked out at 0.073.

With MGESLFKGPRDYNPISSSICHLTNESDGHTTSLYGIGFGPFIITNKHLFRRNNGTLVVQSLHGVFKVKDTTTLQQHLVDGRDMIIIRMPKDFPPFPQKLKFREPQREERICLVTTNFQTKSMSSMVSDTSCTFPSGDGIFWKHWIQTKDGQCGSPLVSTRDGFIVGIHSASNFTNTNNYFTSVPKNFMELLTNQEAQQWVSGWRLNADSVLPGGHKVFMVKPEEPFQPVKEATQL [W212P], the “area with substrate ECLYFQS” value came to 0.0731, the “area with substrate EELYFQS” value is 0.0642, the “area with substrate EGLYFQS” value amounted to 0.0633 and the “area with substrate EILYFQS” value is 0.0544. The “area with substrate EMLYFQS” value worked out at 0.0487, the “area with substrate EPLYFQS” value stood at 0.0525, the “area with substrate EQLYFQS” value was 0.044 and the “area with substrate ESLYFQS” value stood at 0.0594. Besides, the “area with substrate EVLYFQS” value stood at 0.0707.

Regarding MGESLFKGPRDYNPISSSICHLTNESDGHTTSLYGIGFGPFIITNKHLFRRNNGTLVVQSLHGVFKVKDTTTLQQHLVDGRDMIIIRMPKDFPPFPQKLKFREPQREERICLVTTNFQTKSMSSMVSDTSCTFPSGDGIFWKHWIQTKDGQCGSPLVSTRDGFIVGIHSASNFTNTNNYFTSVPKNFMELLTNQEAQQWVSGWRLNADSVLLGGHKVFMVKPEEPFQPVKEATQL [W212L], the “area with substrate ECLYFQS” value was 0.122, the “area with substrate EDLYFQS” value is 0.137, the “area with substrate EELYFQS” value was 0.183 and the “area with substrate EGLYFQS” value turned out to be 0.101. Also, the “area with substrate EHLYFQS” value worked out at 0.101, the “area with substrate EILYFQS” value stood at 0.108, the “area with substrate EKLYFQS” value is 0.162 and the “area with substrate ELLYFQS” value was 0.0968. In addition, the “area with substrate EMLYFQS” value was 0.132, the “area with substrate EPLYFQS” value amounted to 0.119, the “area with substrate EQLYFQS” value was found to be 0.135 and the “area with substrate ERLYFQS” value worked out at 0.119. Besides, the “area with substrate ESLYFQS” value is 0.122, the “area with substrate EVLYFQS” value was determined as 0.118 and the “area with substrate EWLYFQS” value was 0.0972.

For MGESLFKGPRDYNPISSSICHLTNESDGHTTSLYGIGFGPFIITNKHLFRRNNGTLVVQSLHGVFKVKDTTTLQQHLVDGRDMIIIRMPKDFPPFPQKLKFREPQREERICLVTTNFQTKSMSSMVSDTSCTFPSGDGIFWKHWIQTKDGQCGSPLVSTRDGFIVGIHSASNFTNTNNYFTSVPKNFMFLLTNQEAQQWVSGWRLNADSVLWGGHKVFMVKPEEPFQPVKEATQL [E189F], the “area with substrate ECLYFQS” value came to 0.089, the “area with substrate EELYFQS” value was determined as 0.121, the “area with substrate EFLYFQS” value was found to be 0.0818 and the “area with substrate EHLYFQS” value was 0.1. The “area with substrate EILYFQS” value came out at 0.11, the “area with substrate EKLYFQS” value turned out to be 0.11, the “area with substrate ELLYFQS” value turned out to be 0.0823 and the “area with substrate EMLYFQS” value turned out to be 0.119. The “area with substrate EPLYFQS” value worked out at 0.139, the “area with substrate ERLYFQS” value came out at 0.102, the “area with substrate ESLYFQS” value worked out at 0.0969 and the “area with substrate EVLYFQS” value was 0.105. The “area with substrate EWLYFQS” value was found to be 0.077.

For MGESLFKGPRDYNPISSSICHLTNESDGHTTSLYGIGFGPFIITNKHLFRRNNGTLVVQSLHGVFKVKDTTTLQQHLVDGRDMIIIRMPKDFPPFPQKLKFREPQREERICLVTTNFQTKSMSSMVSDTSCTFPSGDGIFWKHWIQTKDGQCGSPLVSTRDGFIVGIHSASNFTNTNNYFTSVPKNFMELLTNQEAQQWVSGWRLNADSVLWGRHKVFMVKPEEPFQPVKEATQL [G214R], the “area with substrate ECLYFQS” value is 0.0687, the “area with substrate EDLYFQS” value was 0.0751, the “area with substrate EELYFQS” value turned out to be 0.102 and the “area with substrate EGLYFQS” value came to 0.0636. Moreover, the “area with substrate EHLYFQS” value was 0.0907, the “area with substrate EILYFQS” value amounted to 0.0755, the “area with substrate EMLYFQS” value turned out to be 0.0744 and the “area with substrate EPLYFQS” value stood at 0.119. For the same variant, the “area with substrate EQLYFQS” value was determined as 0.0681, the “area with substrate ERLYFQS” value came out at 0.0764, the “area with substrate ESLYFQS” value stood at 0.0849 and the “area with substrate EVLYFQS” value was 0.0716. In addition, the “area with substrate EWLYFQS” value was determined as 0.078.

As for MGESLFKGPRDYNPISSSICHLTNESDGHTTSLYGIGFGPFIITNKHLFRRNNGTLVVQSLHGVFKVKDTTTLQQHLVDGRDMIIIRMPKDFPPFPQKLKFREPQREERICLVTTNFQTKSMSSMVSDTSCTFPSGDGIFWKHWIQTKDGQCGSPLVSTRDGFIVGIHSASNFTNTNNYFTSVPKNFMELLTNQEAQQWVSGWRLNADSVLWGPHKVFMVKPEEPFQPVKEATQL [G214P], the “area with substrate ECLYFQS” value amounted to 0.0651, the “area with substrate EELYFQS” value stood at 0.0828, the “area with substrate EHLYFQS” value is 0.0685 and the “area with substrate EILYFQS” value turned out to be 0.0597. For the same variant, the “area with substrate EMLYFQS” value came to 0.0683, the “area with substrate EPLYFQS” value is 0.0828, the “area with substrate ERLYFQS” value was found to be 0.0503 and the “area with substrate ESLYFQS” value turned out to be 0.0427. Further, the “area with substrate EVLYFQS” value amounted to 0.0621 and the “area with substrate EWLYFQS” value came out at 0.0684.

Turning to MGESLFKGPRDYNPISSSICHLTNESDGHTTSLYGIGFGPFIITNKHLFRRNNGTLVVQSLHGVFKVKDTTTLQQHLVDGRDMIIIRMPKDFPPFPQKLKFREPQREERICLVTTNFQTKSMSSMVSDTSCTFPSGDGIFWKHWIQTKDGQCGSPLVSTRDGFIVGIHSASNFTNTNNYFTSVPKNFMELLTNQEAQQWVSGWSLNADSVLWGGHKVFMVKPEEPFQPVKEATQL [R204S], the “area with substrate ECLYFQS” value came to 0.106, the “area with substrate EDLYFQS” value came out at 0.12, the “area with substrate EELYFQS” value came to 0.066 and the “area with substrate EFLYFQS” value is 0.127. In addition, the “area with substrate EGLYFQS” value turned out to be 0.116, the “area with substrate EHLYFQS” value was found to be 0.136, the “area with substrate EILYFQS” value worked out at 0.0974 and the “area with substrate EKLYFQS” value came out at 0.116. Further, the “area with substrate ELLYFQS” value turned out to be 0.0825, the “area with substrate EMLYFQS” value is 0.0726, the “area with substrate EPLYFQS” value was determined as 0.122 and the “area with substrate EQLYFQS” value was found to be 0.12. Besides, the “area with substrate ERLYFQS” value is 0.0965, the “area with substrate ESLYFQS” value was determined as 0.111, the “area with substrate ETLYFQS” value was determined as 0.132 and the “area with substrate EVLYFQS” value came to 0.0914. Moreover, the “area with substrate EWLYFQS” value is 0.0898.
